{"source": "PubChem BioAssay AID1476", "about": "(National Center for Advancing Translational Sciences (NCATS), 2009)", "note": "The campaign covered roughly 200,000 compounds. About 4,500 (2.2%) were called active. The shares of active, inactive and inconclusive entries below differ from those in the screen. Calls come from the whole dose curve; as a rule, active = well fitted inhibition curve with a large enough effect; inconclusive = small, poorly fitted or top-dose-only effect, or effect the other way; inactive = flat fitted curve, though single readings scatter. A potency beside an inconclusive call is a rough fit, not a confirmed value. Potency is the fitted concentration of half-maximal effect; tags give direction and shape of the fitted curve.", "data": [{"target": "Cruzipain (Trypanosoma cruzi) (UniProt P25779)", "sequence (P25779 whole entry, looked up)": "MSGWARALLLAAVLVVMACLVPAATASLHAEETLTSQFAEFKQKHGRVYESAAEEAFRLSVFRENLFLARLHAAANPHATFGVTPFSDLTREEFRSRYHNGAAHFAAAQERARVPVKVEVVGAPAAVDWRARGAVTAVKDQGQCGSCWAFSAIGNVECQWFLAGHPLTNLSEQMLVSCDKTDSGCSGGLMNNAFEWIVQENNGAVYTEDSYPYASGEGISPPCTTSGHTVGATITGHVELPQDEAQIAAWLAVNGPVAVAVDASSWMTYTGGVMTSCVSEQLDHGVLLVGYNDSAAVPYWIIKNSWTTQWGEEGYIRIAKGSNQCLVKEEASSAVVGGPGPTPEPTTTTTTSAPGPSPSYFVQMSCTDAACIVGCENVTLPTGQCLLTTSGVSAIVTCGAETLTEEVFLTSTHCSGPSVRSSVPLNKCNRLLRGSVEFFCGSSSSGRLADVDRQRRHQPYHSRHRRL", "assay": "qHTS Assay for Promiscuous and Specific Inhibitors of Cruzain (without detergent); note: nearly all actives have a fitted effect of over 40% in size;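 for max response, negative = inhibition: plate controls were enzyme without inhibitor for no effect and buffer without enzyme for full effect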", "conditions": "purified cruzain, Z-FR-AMC fluorescence, no detergent", "outline": "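Detergent-free condition (0.00005% Triton X-100) in acetate buffer pH 5.5 with DTT. 1.5 nM enzyme and compound were pre-mixed 15 min, then 2 uM Z-FR-AMC substrate added; reaction progress from fluorescence change between first and third reads (60 s).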", "values": [{"smiles": "COc1ccc(CCn2c(-c3cccc([N+](=O)[O-])c3)nc3nc4ccccc4nc32)cc1OC", "Potency": "inconclusive: 39.8 µM [activator, single point]"}, {"smiles": "CC1=C(C(=O)Nc2ccccc2)C(c2ccccn2)n2nc(SCc3ccccc3Cl)nc2N1", "note": "(centres undefined)", "max response, negative = inhibition": "inactive: -1.89%"}, {"smiles": "Cc1cccc(-c2noc(-c3ccc(NCc4cccnc4)c([N+](=O)[O-])c3)n2)c1", "max response, negative = inhibition": "inactive: -17.1%"}, {"smiles": "CC(C)c1ccc(NS(=O)(=O)c2ccc3[nH]cc(C(=O)N4CCC(C(N)=O)CC4)c(=O)c3c2)cc1", "Potency": "inconclusive: 39.8 µM [activator, single point]"}, {"smiles": "Cc1cc(NCc2ccc(Cl)cc2)n2cnnc2n1", "max response, negative = inhibition": "inactive: -14.5%"}, {"smiles": "CCc1ccc(NS(=O)(=O)c2c(-c3ccccc3)csc2C(=O)OC)cc1", "Potency": "inconclusive: 31.6 µM [inhibitor, single point]"}, {"smiles": "O=C(Nc1nnc(S(=O)(=O)N2CCCCCC2)s1)c1ccccc1", "Potency": "inconclusive: 39.8 µM [activator, single point]"}, {"smiles": "COc1ccccc1N(CC(=O)Nc1cc(C)cc(C)c1)S(C)(=O)=O", "max response, negative = inhibition": "inactive: -6.87%"}, {"smiles": "O=C(Cn1c(SCC(=O)Nc2ccc(F)cc2)nc2ccccc21)NCc1ccc(Cl)cc1", "Potency": "inconclusive: 39.8 µM [inhibitor, single point]"}, {"smiles": "Cc1ccc(N2CC(NC(=O)c3ccccc3Br)CC2=O)cc1", "note": "(centres undefined)", "Potency": "inconclusive: 3.16 µM [activator, partial curve]"}, {"smiles": "O=C(Nc1ccc(F)c(Cl)c1)C1CCN(S(=O)(=O)c2ccc3c(c2)CCCN3C(=O)C2CCC2)CC1", "max response, negative = inhibition": "inactive: -19.6%"}, {"smiles": "O=C(Nc1nnc(N2CCCCCC2)s1)c1cc(-c2ccc(Br)cc2)on1", "Potency": "inconclusive: 2.51 µM [inhibitor, partial curve, poor fit]"}, {"smiles": "CCOC(=O)c1ccccc1NC(=O)Cn1c(=O)n(-c2ccc(CC)cc2)c(=O)c2c(C)c(C(=O)N(C)C)sc21", "max response, negative = inhibition": "inactive: 6.73%"}, {"smiles": "CCOC(=O)N1CCC(NC(=O)CCC(=O)N2CC(C)Oc3ccc(C)cc32)CC1", "note": "(centres undefined)", "Potency": "inconclusive: 31.6 µM [activator, single point]"}, {"smiles": "Cc1noc(C)c1S(=O)(=O)N(CC(=O)N1CCc2ccccc21)c1ccc(C(C)C)cc1", "Potency": "inconclusive: 39.8 µM [inhibitor, single point]"}, {"smiles": "CC(=O)c1cccc(N=c2scc(-c3ccc(S(=O)(=O)N4CCOCC4)cc3)n2CCO)c1", "Potency": "inconclusive: 31.6 µM [activator, partial curve]"}, {"smiles": "CCOc1cc(S(=O)(=O)N2CCN(c3ccc(F)cc3)CC2)c(OCC)cc1-n1cnnn1", "Potency": "inconclusive: 25.1 µM [activator, single point]"}, {"smiles": "CCOc1ccc(NC(=O)Nc2c[nH]c(=O)[nH]c2=O)cc1", "Potency": "inconclusive: 25.1 µM [activator, single point]"}, {"smiles": "O=C(/C=C/c1ccco1)NC(=S)Nc1cc(-c2nc3ccccc3s2)ccc1Cl", "Potency": "active: 6.31 µM"}, {"smiles": "Cc1ccccc1Cn1c(=O)n(CCCCCC(=O)NCc2ccc3c(c2)OCO3)c(=O)c2sccc21", "max response, negative = inhibition": "inactive: 16%"}, {"smiles": "CC(C)[C@H](NC(=O)c1cccc(S(=O)(=O)N2CCCC2)c1)c1nc2ccccc2[nH]1", "Potency": "inconclusive: 39.8 µM [inhibitor, single point]"}, {"smiles": "COc1ccc(Nc2ncc(C(=O)N3CCN(c4ccccc4OC)CC3)c3ccccc23)cc1", "Potency": "inconclusive: 39.8 µM [activator, single point]"}, {"smiles": "Clc1ccc(CN2CCC(CNc3ncnc4onc(-c5ccc(Cl)cc5)c34)CC2)cc1", "max response, negative = inhibition": "inactive: -6.19%"}, {"smiles": "Cc1ccccc1N1CCN(CCCCN2C(=O)C3CCCN3C2=O)CC1", "note": "(centres undefined)", "Potency": "inconclusive: 0.794 µM [inhibitor, single point]"}, {"smiles": "O=C(/C=C/c1ccco1)NC(=S)Nc1cccc([N+](=O)[O-])c1", "Potency": "active: 31.6 µM"}, {"smiles": "O=S(=O)(NC1c2cccc3cccc(c23)C1Sc1ncccn1)c1ccc(Cl)cc1", "note": "(centres undefined)", "Potency": "inconclusive: 31.6 µM [inhibitor, single point]"}, {"smiles": "COc1ccc(C(C(=O)NC2CCCCC2)N(C(=O)c2sc(C)nc2C)c2ccc(OC)cc2)cc1", "note": "(centres undefined)", "Potency": "inconclusive: 20 µM [activator, partial curve]"}, {"smiles": "CCN(CC)S(=O)(=O)c1ccc2c(c1)nc(CCC(=O)OCC(=O)N1CCc3ccccc31)n2C", "Potency": "inconclusive: 39.8 µM [activator, single point]"}, {"smiles": "O=C(Cn1c(=O)n(-c2cccc(Cl)c2)c(=O)c2sc3ccccc3c21)NC1CCCCC1", "Potency": "inconclusive: 0.0251 µM [activator, partial curve, poor fit]"}, {"smiles": "CC(CCc1ccco1)NC(=O)Cn1ncc2c1-c1ccccc1OC2", "note": "(centres undefined)", "Potency": "inconclusive: 39.8 µM [activator, single point]"}, {"smiles": "Nc1cccc(C(F)(F)F)c1", "max response, negative = inhibition": "inactive: -0.581%"}, {"smiles": "CCCCOc1c(Br)cc(/C=C2\\N=C(C)OC2=O)cc1OCC", "Potency": "inconclusive: 39.8 µM [activator, single point]"}, {"smiles": "Cc1ccc2cccc(NC(=S)NC(=O)c3ccnn3C)c2n1", "Potency": "inconclusive: 31.6 µM [activator, single point]"}, {"smiles": "COc1ccc(-n2c(C)cc(C(=O)CN3C(=O)NC4(CCCc5sccc54)C3=O)c2C)cc1", "note": "(centres undefined)", "Potency": "inconclusive: 39.8 µM [inhibitor, single point]"}, {"smiles": "O=C(c1cc(-c2ccccc2O)on1)N1CCCCC1", "max response, negative = inhibition": "inactive: 7.15%"}, {"smiles": "Cc1ccc(S(=O)(=O)Oc2ccc(/C=N/NC(=O)c3c(Cl)cnn3C)cc2)cc1", "Potency": "inconclusive: 39.8 µM [activator, single point]"}, {"smiles": "CCOc1ccc2ncc(S(=O)(=O)c3ccccc3)c(N3CCC4(CC3)OCCO4)c2c1", "Potency": "inconclusive: 39.8 µM [activator, single point]"}, {"smiles": "O=[N+]([O-])c1cc(S(=O)(=O)N2CCCCC2)ccc1NCc1cccc(Cl)c1", "Potency": "inconclusive: 31.6 µM [inhibitor, single point]"}, {"smiles": "S=C1NC=NC2N=CNC12", "note": "(centres undefined)", "Potency": "inconclusive: 39.8 µM [activator, single point]"}, {"smiles": "O=C(Nc1ccccc1)c1nnsc1S(=O)c1ccc(Cl)cc1", "note": "(centres undefined)", "Potency": "inconclusive: 31.6 µM [inhibitor, single point]"}, {"smiles": "Cc1cc(C)cc(NS(=O)(=O)c2ccc3[nH]cc(C(=O)NC4CCCCC4)c(=O)c3c2)c1", "Potency": "inconclusive: 39.8 µM [inhibitor, single point]"}, {"smiles": "Cc1cc(C)cc(NC(=O)CSc2oc(-c3ccccc3)nc2S(=O)(=O)c2ccccc2)c1", "max response, negative = inhibition": "inactive: -6.02%"}, {"smiles": "Cc1nn(-c2ccccc2)c(N2CCCC2)c1/C=N/NC(=O)c1cc2ccccc2cc1O", "Potency": "active: 15.8 µM"}, {"smiles": "CCCCOc1ccc(CNC(=S)N/N=C/c2ccc(OC)c(OC)c2)cc1", "Potency": "inconclusive: 39.8 µM [inhibitor, single point]"}, {"smiles": "CC[C@@H](C)[C@H]1O[C@]2(CC[C@@H]1C)C[C@@H]1C[C@@H](C/C=C(\\C)[C@@H](O[C@H]3C[C@H](OC)[C@@H](O[C@H]4C[C@H](OC)[C@@H](O)[C@H](C)O4)[C@H](C)O3)[C@@H](C)/C=C/C=C3\\CO[C@@H]4[C@H](O)C(C)=C[C@@H](C(=O)O1)[C@]34O)O2", "Potency": "inconclusive: 3.98 µM [activator, full curve]"}, {"smiles": "Cc1ccc(CNC(=O)CCc2c(C)nc3nc(C)nn3c2C)cc1", "max response, negative = inhibition": "inactive: -4.72%"}, {"smiles": "CCn1cc2c(n1)-c1c(oc(C(=O)Nc3cccc(C)c3C)c1C)CC2", "max response, negative = inhibition": "inactive: -2.46%"}, {"smiles": "COC(=O)/C=C1\\SC(=NC(=O)c2cccc(Cl)c2)NC1=O", "max response, negative = inhibition": "inactive: -12.2%"}, {"smiles": "OC[C@H]1O[C@@H]2O[C@H]3[C@H](O)[C@@H](O)[C@@H](O[C@H]4[C@H](O)[C@@H](O)[C@@H](O[C@H]5[C@H](O)[C@@H](O)[C@@H](O[C@H]6[C@H](O)[C@@H](O)[C@@H](O[C@H]7[C@H](O)[C@@H](O)[C@@H](O[C@H]8[C@H](O)[C@@H](O)[C@@H](O[C@H]1[C@H](O)[C@H]2O)O[C@@H]8CO)O[C@@H]7CO)O[C@@H]6CO)O[C@@H]5CO)O[C@@H]4CO)O[C@@H]3CO", "max response, negative = inhibition": "inactive: -1.67%"}, {"smiles": "COc1ccc(O)c(/C=N/NC(=O)c2ccc(OCc3cccc(Br)c3)cc2)c1", "Potency": "active: 7.94 µM"}, {"smiles": "C[N+]1(C)CCC[C@H]1C(=O)[O-]", "max response, negative = inhibition": "inactive: -2.5%"}, {"smiles": "Cc1ccccc1NC(=O)c1cccc2nc3ccccc3nc12", "Potency": "inconclusive: 31.6 µM [activator, single point]"}, {"smiles": "Cc1ccc(S(=O)(=O)N(CC(=O)Nc2cccc(N(C)S(C)(=O)=O)c2)c2ccc(Cl)c(Cl)c2)cc1", "Potency": "inconclusive: 39.8 µM [inhibitor, single point]"}, {"smiles": "Cc1cccc(NC(=O)Cn2c(=O)n(Cc3ccccc3)c(=O)c3c(C)c(C)sc32)c1", "Potency": "inconclusive: 39.8 µM [inhibitor, single point]"}, {"smiles": "C/C(=N/NS(=O)(=O)c1ccc(Cl)cc1)c1cccc(NC(=O)c2ccc(Cl)cc2Cl)c1", "Potency": "active: 25.1 µM"}, {"smiles": "COc1ccc(Nc2nc(NCc3ccco3)nc(N/N=C/c3ccccc3)n2)cc1", "Potency": "inconclusive: 39.8 µM [inhibitor, single point]"}, {"smiles": "O=C(c1ccc2c(c1)N(Cc1ccc(F)cc1)C(=O)c1ccccc1S2(=O)=O)N1CCN(Cc2ccccc2)CC1", "Potency": "inconclusive: 39.8 µM [activator, single point]"}, {"smiles": "COc1ccc(-c2nc(SCC(=O)Nc3ccc4c(c3)OCCO4)c(-c3ccc(F)cc3)[nH]2)cc1OC", "Potency": "inconclusive: 25.1 µM [activator, single point]"}, {"smiles": "COc1ccc(CC(=O)NCc2ccc3c(c2)CCN3C(C)=O)cc1", "max response, negative = inhibition": "inactive: 0.504%"}]}]}
